Reference: PubChem BioAssay AID485344 (National Center for Advancing Translational Sciences (NCATS), 2010)
Where “and” joins values, the source holds several entries; their conditions need not be identical. Identical values can stand only once. In all, about 340,000 compounds went through this assay and about 6,900 (2%) were called active. Rule as the data show it: active = inhibition above about 30%; inactive = below that, where a call was filed. The list shows a part of the results, in another mix than the full data. Where no call is shown, the source filed none.

molecular target: D(2) dopamine receptor (Homo sapiens) (UniProt P14416); assay: HTS Assay for Allosteric Antagonists of the Human D2 Dopamine Receptor: Primary Screen for Antagonists; conditions: HEK293 TREx D2 cells, calcium flux, dopamine EC80; at 10 µM; stronger effect = higher value; also: 0% is about no effect
Chain of UniProt P14416 (P14416 whole entry, looked up): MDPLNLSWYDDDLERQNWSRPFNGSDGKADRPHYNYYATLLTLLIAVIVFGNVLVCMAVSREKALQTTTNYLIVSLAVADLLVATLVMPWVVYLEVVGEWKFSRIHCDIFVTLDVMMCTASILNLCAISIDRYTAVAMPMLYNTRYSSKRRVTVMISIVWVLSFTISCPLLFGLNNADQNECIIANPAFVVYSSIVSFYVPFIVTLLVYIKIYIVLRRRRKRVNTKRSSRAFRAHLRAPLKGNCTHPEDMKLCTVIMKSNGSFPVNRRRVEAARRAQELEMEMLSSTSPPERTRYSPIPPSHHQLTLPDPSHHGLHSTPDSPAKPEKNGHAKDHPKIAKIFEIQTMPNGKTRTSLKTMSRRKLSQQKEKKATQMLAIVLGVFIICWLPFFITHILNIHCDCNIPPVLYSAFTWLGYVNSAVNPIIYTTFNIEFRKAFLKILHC
How it was run: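 Calcium flux kinetic readout in an inducible HEK293 TREx D2 line plated overnight at 30 C. After 180 s compound exposure, an EC80 dopamine challenge follows with another 180 s kinetic read to detect antagonism.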

SMILES	inhibition
COc1ccc(-n2ncc(C(=O)NCCN3CCOCC3)c2C2CCN(C(=O)OC(C)(C)C)CC2)cc1	11.9%
Cc1nc(-c2cccc(S(=O)(=O)N3CCC(C(=O)NCc4ccccc4Cl)CC3)c2)no1	7.97%
Cn1nc(-c2ccccc2F)c2cc(C(=O)NCc3cccc(Cl)c3)sc21	-0.6%
Cc1cc(C)cc(NC(=O)c2cc(S(=O)(=O)N3CCCC3)ccc2F)c1	-14%
Cc1cccc(CSc2nnc(CCCCCN)o2)c1	-26.9%
Cc1ccc(C)c(NC(=O)c2nnn(Cc3ccc(F)cc3Cl)c2N)c1	5.97%
CC1CCc2nc(NC(=O)CN3CCN(Cc4ccc5c(c4)OCO5)CC3)sc2C1 (stereo unspecified)	active: 72.3%
Cc1ccccc1CNCc1c(C(=O)O)c(C)n(Cc2ccc(F)cc2Cl)c1C	8.09%
COc1ccc(-n2ncc3c2ncn2nc(Cc4ccccc4)nc32)cc1	4.2%
COC(=O)CCC(=O)OC1(C)C(=O)C=C2C=C(C3CC3)N(CC(C)C)C=C2C1=O (stereo unspecified)	active: 31.5%
CC(=O)Nc1ccc(C(=O)Nc2ccc3c(c2)N(C2CCCC2)C(=O)c2ccccc2S3)cc1	18.7%
O=C(O)/C=C/C(=O)NCCc1ccccc1	active: 60.9%
Cc1nnc(N2CCC(C(=O)NC(C)C)CC2)c2nn(-c3ccccc3)c(C)c12	-5.95%
O=C(Nc1ccc(F)cc1)c1cc2cc3ccc(Cl)cc3nc2o1	-8.92%
Cc1ccc(-c2noc(-c3nnn(-c4ccc(Br)cc4F)c3C)n2)cc1	-5.2%
COc1ccc(OC)c(NC(=O)Nc2ccc(Cl)cc2)c1	active: 46.5%
COc1cc2c(cc1NC(=O)COc1ccc(Cl)cc1)oc1ccccc12	11.6%
Cc1ccccc1Nc1nc(N)nc(COC(=O)CCS(=O)(=O)c2ccccc2)n1	active: 31.7%
COc1ccc(NC(=O)Cn2c(=O)n(Cc3ccco3)c(=O)c3oc4ccccc4c32)cc1Cl	-7.48%
CCn1cc2nc(SCc3cccc(C(F)(F)F)c3)n(Cc3ccc(OC)cc3)c(=O)c2n1	-11%
COc1cc(Cl)c(C)cc1NC(=O)Cn1c(C)c2cnn(-c3ccccc3)c(=O)c2c1C	0.206%
CC(=O)Nc1c(C)nn(-c2ccccc2)c1N1CCC(C(=O)NCc2ccc(F)cc2)CC1	-5.02%
C=C(C)Cn1c(SCC(=O)c2ccccc2)nc2sc3c(c2c1=O)CCCC3	1.96%
CC(=O)c1ccc(NC(=O)CSc2nnc(N)s2)cc1	20.1%

SMILES	inhibition
O=C(Nc1cccc(C(F)(F)F)c1)C1CCN(S(=O)(=O)c2cccs2)CC1	18.9%
Cc1cc(C)cc(-n2c(SCC(=O)N3CCCCCC3)nc3c([nH]c4ccccc43)c2=O)c1	-20.5%
CCS(=O)(=O)c1ncc(Cl)c(C(=O)NCc2ccccc2)n1	-11.1%
O=C(Nc1cc(F)ccc1F)c1ccc(CN2CC(=O)N3CCCCC3C2=O)cc1 (stereo unspecified)	23%
COc1ccc(-c2cc(=O)oc3c4c(ccc23)OCN(Cc2ccccc2)C4)cc1	6.48%
CC1CCN(CCCCOc2ccc(F)cc2)CC1	active: 44.2%
O=C(CNC(=O)c1ccccc1)OCc1cc(=O)n2nc(C3CC3)sc2n1	12%
O=c1c2oc3ccccc3c2n(Cc2ccc(Cl)cc2)c(=O)n1Cc1ccccc1	13.8%
CCC1CCCCN1C(=O)CCS(=O)(=O)c1cc2c(cc1C)NC(=O)CO2 (stereo unspecified)	-4.35%
Cc1ccc(Nc2c(-c3ccc(C)o3)nc3cccc(C)n23)cc1	1.2%
CCOC(=O)c1c(C)[nH]c(C)c1S(=O)(=O)N1CCC(C(=O)Nc2ccc(C)c(N(C)C)c2)CC1	4.18%
Cn1cc(C(=O)NCCc2ccccc2)c(=O)c2cc(S(=O)(=O)N3CCCCC3)ccc21	3.24%
CC(C)(C)OC(=O)N1CCC(c2c(C(=O)N3CCN(Cc4ccccc4)CC3)cnn2-c2ccc(Cl)cc2)CC1	-17.6%
Cc1cc(-c2ccc(C)c(S(=O)(=O)NCc3cccs3)c2)on1	-2.43%
CCc1ccc(N2C(=O)CN(S(=O)(=O)CC)CC2(C)C(=O)NC2CCCCC2)cc1 (stereo unspecified)	17.8%
Cc1ccc(NC(=O)c2oc3ccccc3c2NC(=O)C23CC4CC(CC(C4)C2)C3)cc1	-27.8%
NS(=O)(=O)c1ccc(CCNC(=O)CNC(=O)c2ccc(Br)o2)cc1	active: 65.8%
Cc1oc2cc(O)ccc2c(=O)c1Oc1ccccc1Br	active: 36.6%
COc1ccc(C(=N/O)/C(=N/O)c2ccc(OC)cc2)cc1	active: 39.6%
Cc1ccc(C(=O)NCc2ccccc2)cc1NC(=O)c1nsc2ccccc12	2.93%
CCOc1ccc(Nc2ncnc3scc(-c4ccc(OC)cc4)c23)cc1	21%
CCc1ccc(OCC(=O)Nc2cc(-c3nc4cc(C)ccc4o3)ccc2C)cc1	-10.6%
CN(Cc1ccc(F)cc1)S(=O)(=O)c1nnc(NC(=O)c2ccccc2)s1	-12%
CCCNC(=O)C1CCC(CNS(=O)(=O)c2ccc3c(c2)CC(C)N3C(C)=O)CC1 (stereo unspecified)	14% and active: 40.5%

SMILES	inhibition
Cc1ccc2oc(=O)n(Cc3ccccc3Cl)c2c1	0.642%
Cc1ccc2oc(-c3cc(NC(=O)c4oc5ccccc5c4C)ccc3Cl)nc2c1	4.56%
C[C@H]1[C@H]2c3nc4ccccc4n3C[C@H]1ON2C1CCCCC1	active: 31%
CCNC(=S)NC1CC2CCC(C1)N2Cc1ccccc1 (stereo unspecified)	active: 57%
COc1ccc(C2Oc3nc(SC)nnc3-c3ccccc3N2C(C)=O)cc1 (stereo unspecified)	12.2%
COCCCn1c(=O)c2sccc2n2c(CCCC(=O)NCc3ccc(F)cc3)nnc12	25.5%
COc1ccc(NC(=O)C2CCN(c3cnccn3)CC2)cc1Cl	-5.3%
Cc1ccc2[nH]c3c(=O)n(CC(=O)NCCc4ccc(Cl)cc4)ncc3c2c1	-9.52%
Cc1cn2c(=O)c(S(=O)(=O)NCc3ccccc3Cl)c(C)nc2s1	6.38%
Cc1cc(C)n(CCc2nc3c4ccccc4nc(N4CCN(c5ccc(F)cc5)CC4)n3n2)n1	3.52%
COc1ccc(-c2ccc(CCC(=O)O)n2-c2ccc(Cl)cc2C)cc1	-18.8%
CCN(C(=O)CSc1nc2ccccc2n1CC(=O)Nc1ccc(F)cc1F)c1ccccc1	2.96%
O[C@@H]1CN(Cc2ccc(-n3cccn3)cc2)CC[C@H]1N1CCN(c2ccccc2F)CC1	active: 38.5%
CCN(C(=O)CSc1nc2n[nH]c(C)c2c(=N)n1-c1cccc(OC)c1)c1cccc(C)c1	-1.45%
CCOC(=O)c1cccc(NC(=O)CCc2c(C)nn(-c3ccc(N4CCOCC4)nn3)c2C)c1	3.29%
COc1ccc(OC)c(NC(=O)c2cc(=O)c3c(C)cc(C)cc3o2)c1	-6.49%
CCOC(=O)c1c(NC(=O)c2cc(Cl)ccc2Cl)sc2c1CCCC2	-9.85%
Cc1ccc(CNc2cc(C)nc3nc(-c4cccc(C)c4)nn23)cc1	-9.96%
Cc1ccc(CNc2nccn(-c3cc(C)cc(C)c3)c2=O)cc1	12.6%
CN(C(=O)CSc1nc2ccc(NC(=O)COc3ccccc3)cc2s1)c1ccccc1	4.14%
CCC(C)NC(=O)c1sc2ncccc2c1-n1c(C)ccc1C (stereo unspecified)	-9.3%
CCOC(=O)c1ccc2[nH]c(CSc3nnc(-c4cccc(F)c4)n3C)cc(=O)c2c1	1.97%
Cc1cccc(NC(=O)COc2cccc3c(=O)n(C)ccc23)c1C	-23.1%
CCOc1cc(C2c3c(oc4ccccc4c3=O)C(=O)N2c2ccccn2)ccc1O (stereo unspecified)	8.13%

SMILES	inhibition
Cc1ccc(C)c(-c2[nH]c3c(c2-c2c(-n4cccc4)n(C)c(=O)n(C)c2=O)c(=O)n(C)c(=O)n3C)c1	-8.71%
Cc1ccc(-n2nc(C(=O)N3CCN(c4cccc(C(F)(F)F)c4)CC3)c3c4ccccc4n(C)c3c2=O)cc1	-5.34%
CC(C)CN(CCNC(=O)c1cn(C)c2ccc(S(=O)(=O)N3CCCC3)cc2c1=O)CC(C)C	-3.9%
CCCN(C(=O)CCNC(=O)Cn1cnc2ccccc2c1=O)c1cccc(C)c1	5.59%
Cc1nn(-c2ccc(N3CCCCC3)nn2)c(C)c1CCC(=O)NCc1ccc(Cl)cc1	-0.628%
CCOC(=O)c1c(-c2ccccc2)oc2ccc(N(C(C)=O)S(=O)(=O)c3ccc(C)cc3)cc12	-3.11%
CCc1ccccc1NC(=O)Cn1cc2c(n1)CCC(C)C2 (stereo unspecified)	4.01%
CCC(=O)N1CCc2cc(Br)cc(S(=O)(=O)CCC(=O)NCCc3ccccc3)c21	-7.84%
O=[N+]([O-])c1ccc(/C=N/NS(=O)(=O)c2ccc(Cl)cc2)o1	active: 45.4%
Cc1cccc(NS(=O)(=O)c2ccc(NC(=O)N3CCCC3)cc2)c1	8.09%
CCOC(=O)c1cc(C)n(CC2CCC(C(=O)Nc3ccc(C(=O)OC)cc3)CC2)c1C (stereo unspecified)	-5.11%
CS(=O)(=O)N1CCN(c2ccc(NC(=S)NC(=O)c3ccccc3[N+](=O)[O-])cc2)CC1	active: 32.9%
Cc1ccccc1CNC(=O)Nc1ccc2c(c1)N(C)C(=O)c1ccccc1S2	-23.1%
COc1ccc(C2CC(=O)N(Cc3ccccc3)c3c2c(C)nn3-c2nc(C)cc(C)n2)c(OC)c1 (stereo unspecified)	-7.94%
CCOC(=O)c1c(NC(=O)c2ccc(OC)c(OC)c2)sc2c1CCCCC2	-3.42%
O=C(CCOc1ccccc1)N(Cc1cccnc1)c1nc2ccc(F)cc2s1	-9.57%
O=C(Nc1ccc2oc(-c3ccc(Cl)cc3)nc2c1)c1ccc2ccccc2c1	0.0957%
CCN(CC)c1cc(C)c2cc(NC(=O)c3ccc(F)cc3Cl)ccc2n1	-4.13%
Oc1cccc(Nc2nc(N3CCOCC3)nc(N3CCOCC3)n2)c1	active: 36%
CCOc1ccccc1NC(c1nnc(-c2ccccc2)o1)c1ccc(F)cc1Cl (stereo unspecified)	-6.8%
Cn1c(=O)oc2cc(S(=O)(=O)N3CCC(C(=O)N4CCN(c5ccc(Cl)cc5)CC4)CC3)ccc21	-21.7%
CCOc1ccc(CNC(=O)c2ccc3c(c2)nc2n3CCC(C)C2)cc1OC (stereo unspecified)	-2.85%
CCCCSCCCNC(=O)C1CCC(CNS(=O)(=O)c2c(C)cc(C)cc2C)CC1 (stereo unspecified)	8.5%
COc1cccc(C(=O)NC2CC(=O)N(c3ccc4c(c3)OCCO4)C2)c1OC (stereo unspecified)	26.1%
